Measured values from the supplement of paper PMC11417369.
Some of the results follow.

Each sequence was assayed on PfSIP2 AP2 domain 1 (GST-tagged) (assay: gcPBM binding intensity (ln(normalized median fluorescence intensity)); higher = stronger DNA binding).
Outline: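 GST-fused DNA-binding domains of P. falciparum, expressed in E. coli, were applied at about 25 μg on average for 1 h to an Agilent 4 × 180k array of primer-extended double-stranded 36-bp intergenic genomic probes and negative controls. Binding intensity is the highest Masliner-normalised natural-log median intensity across replicate spots of either probe orientation, measured with Alexa488 anti-GST antibody and a 488 nm scan.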

Sequence	gcPBM binding intensity (ln)
ATAAATAAAGGACACACACACACACTAGAAAAAAAA [CACACA_site5450]	7.67
AAAATAAAATTAGTTGCATGCAACTTAAACAGAAAT [TGCATGCA_site860]	7.24
TTGTGCTTGATATCACGGACAAGCTCATATTATATA [XGTACX_site4553]	6.76
ATGAAAAAATTTATATGTACTTAAAATATAATCATA [XGTACX_site1228]	6.95
TATATTATTAAGATATGTACATAATTATAAATTTAA [XGTACX_site6848]	6.85
TATAAATAAAAACACACACACACATATATATATATA [CACACA_site2268]	9.29
CTCTATAAATGCTGCACACACATTTAATTATTTAAG [CACACA_site2582]	7.31
TATAAATATAAATATACACACATATTTATATTTATA [CACACA_site7053]	6.96
AAATGAAATACATCCTGTACATAGTAATGCTAACAA [XGTACX_site6600]	6.75
TTTTACAATGAAAGGTGTACAAGTAACAGTAGAACA [XGTACX_site1528]	7.4
AACAAATACAGACACACACACACACTAATAAAAAAA [CACACA_site8067]	7.33
GATATATATTAATATACACACACACCGATATATATA [CACACA_site8462]	7.45
TATTTTTATATTTTTGCACACATTCTTTACTCTTCA [CACACA_site2211]	7.27
AAAAATTTTATATTCACACACATATATATATATATA [CACACA_site624]	9.53
TTTATATTTTATAAATTATTCATAAATATATTTGTA [TGCATGCA_negctrl_site175]	6.88
TTTTGAAACATATGATGTACACGAACATTTAAAAAA [XGTACX_site474]	7.16
AAATTCCACCAACACACACACATATAAATAAATAAA [CACACA_site1233]	7.33
AATAAATAGATAAGCACACAAGCATATAGACATATA [CACACA_site222]	6.86
TTTATAAAAATGAACACACACATATATATATATATA [CACACA_site3493]	9.67

Sequence	gcPBM binding intensity (ln)
AAATATTTATAGGTTTGTACTTATAAATAAAAAAAA [XGTACX_site7360]	7.09
AATATGAAAAGATGAACAACAAAATGGAGAACAATA [GTGCAC_negctrl_site612]	7.15
ATACAAAATTTTTAAGAACACACAAAAATGTACTAT [CACACA_site8817]	7.01
TGAGGTAACTAAATATGTACGTAACGAAGATACATA [XGTACX_site8231]	6.99
GCGTTATTAAATAATTCACACACATATATATATATA [CACACA_site8711]	9.24
GAACGCCATTCACATAAAGGGATACATAAATAAATA [XGTACX_negctrl_site330]	7.1
AAGAAAAACTTTACGTGTACCAAACGTCATGCCAAC [XGTACX_site2575]	6.86
TACTTACACTGTTTTTGTACTTATTTCCCTTTTATT [XGTACX_site2158]	7.27
AATCACAAATAAAATAATATGACACAATATAAAATA [CACACA_negctrl_site537]	6.92
TTCTTGTATTTTCATAGTACATATAATGTCGTATTA [XGTACX_site600]	7.28
TAATTTCTTATGTATTGTACAAATAATGTATGATAT [XGTACX_site270]	7.19
AAATGTTATAACTCTTGAAAAAACAAAATATCATCA [CACACA_negctrl_site1156]	6.76
ACTTTACAATATATATGTACATATTAATAAACATAT [XGTACX_site3689]	7.65
GAGTTTTTTTAATGATGTACATTTTAAAAATAAACG [XGTACX_site1036]	7.25
AAAATAATATATGTATGTACATATACACATATAGAA [XGTACX_site2218]	7.01
TTTATTATACAAAATTGTACTTTATAATTTTATGTA [XGTACX_site5846]	6.82
AAATATTACGGAATAAAGAGCTTTTAAATAATTTTA [CACACA_negctrl_site1700]	6.56
AAATATAAACGGCACACACACAAAAAAAGAAAAAAA [CACACA_site649]	7.18
AGAAACCTTGTTAGTTAGCATATATATATATATATA [CACACA_negctrl_site372]	9.47

Sequence	gcPBM binding intensity (ln)
TATTTTATACATATTTTACACACTAATATATACATA [CACACA_site7998]	7.12
GTTGCGTATATATACACACATACATATATATATATA [CACACA_site1607]	9.4
TTATATAATAAAAATTGTACATATTATATATATATT [XGTACX_site3427]	6.87
TAATATTCAATTATACGTACACATATATATATATAT [XGTACX_site4245]	9.26
TATGAAAGAAATAGTACACACATAAACATTTGTAAA [CACACA_site2783]	7.02
TCATATATCATAACAGTGCAAAAAAAAAAAAATTAT	8.58
GTTTGATTAAACTTGACACACATATATATAAATATA [CACACA_site1784]	6.9
AAAAAAAAAAAAGAAACACACATATATATATATATA [CACACA_site140]	8.95
AGAAAATATACAAAACGTACTTATATATTATATCTA [XGTACX_site3104]	6.78
GTTAGAGGGAAAAAGAGTACATATATGTGGATAATT [XGTACX_site2064]	6.96
TATTTATGTATATGCTGTACGCATTTGTGAAACATA [XGTACX_site4688]	7.27
AACCAATTAGAAGGATCCAGAACTTATTTGTTTTTA [CACACA_negctrl_site1744]	6.56
TACAAGCCCAATTCAAGTACATATATATATATATAT [XGTACX_site5569]	9.57
AGTTTGTCAATCAACACACACCTATTTATTATATAT [CACACA_site6030]	6.79
ATTCATTCATATGTTACACACACACGCCCACATAAA [CACACA_site7513]	7.33
TTATATATATATATATATATTTACATAATAATATGT [GTGCAC_negctrl_site388]	7.55
TAAAAAAAGGTTATTGGTACACACATATGTATATAT [XGTACX_site1029]	7.17
TAAACTTTCCAGTGTTGTACATAATAATTATTATAT [XGTACX_site8896]	7.03
